Test results from the supplement of paper PMC4466236.
The full ranking holds about 33,000 sequences; the median of “E-score (dimensionless, -0.5 to 0.5)” is about -0.058, and the highest 2% start at about 0.35. Some of the results follow.

system: MvaT; experiment: PBM 8-mer E-score (mean of HK and ME arrays) (E-score (dimensionless, -0.5 to 0.5)); higher = stronger relative binding preference; most listed sequences are background and not binding sites
Procedure: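 Protein binding microarray: GST-tagged full-length MvaT (P. aeruginosa PAO1) bound to two universal double-stranded 60-mer arrays (ME and HK), each with a constant 25-mer primer and a variable 35-mer region covering all 8-mers. The 8-mer E-score (rank-based, range -0.5 to 0.5, >0.45 = specific binding) is the mean of the two arrays.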

| Sequence | PBM 8-mer E-score |
| --- | --- |
| ATAAGTAG | 0.341 |
| ATGCGAAA | 0.0921 |
| CTTATCTA | 0.209 |
| ACTCAGGG | -0.179 |
| CGAGCGCG | -0.17 |
| CACTAGGG | -0.115 |
| GGACACAC | -0.177 |
| AGTACAAC | 0.164 |
| CAATGCGG | -0.152 |
| AAGTATAG | 0.167 |
| CCTAGTTC | -0.0922 |
| ATTGCGAG | 0.0265 |
| AATCGACA | 0.0138 |
| ACTCGTCG | -0.122 |
| TATTTTCA | 0.277 |
| TCTGGGAA | -0.0482 |
| AGCTACCT | -0.122 |
| GTTCTAGA | 0.07 |
| CTGCTCCA | -0.177 |
| AGCTTTTG | -0.0234 |
| TCGTCGAA | 0.0414 |
| GCCACCAA | -0.112 |
| CACACCAA | -0.000869 |
| ATGTCATA | 0.209 |
| CTTCATGC | -0.0638 |

| Sequence | PBM 8-mer E-score |
| --- | --- |
| AGCGTCAC | -0.0128 |
| CTTGACCC | -0.171 |
| AGATCAGG | -0.023 |
| GTTCTATA | 0.212 |
| TAAAGTAA | 0.365 |
| ACCTCAAG | -0.0997 |
| CATTGAAC | 0.173 |
| AATGACAT | 0.166 |
| CCCATAGA | 0.0156 |
| CGCTAAAA | 0.129 |
| GTGCGCAC | 0.118 |
| ACATCGGT | -0.112 |
| AAGAGCAA | -0.00896 |
| GAAAGTAA | 0.314 |
| AAGTGACG | -0.0196 |
| ACCGCCAG | -0.195 |
| CCAGCATA | 0.0576 |
| ACACTTCA | 0.218 |
| CTTCAGGA | 0.184 |
| AGTCAAAA | 0.196 |
| AGAGCTCG | -0.162 |
| GTCTCGGA | -0.186 |
| AGGCTTGC | -0.082 |
| CCTGATAG | -0.116 |
| ATCGGTCC | -0.188 |

| Sequence | PBM 8-mer E-score |
| --- | --- |
| ACTTTACC | 0.208 |
| TGGGATAA | 0.0691 |
| TCCTAGGA | -0.237 |
| GGCGCGTA | -0.204 |
| GATATTCC | 0.229 |
| CCCCCCTA | -0.232 |
| CGCATATA | 0.327 |
| TATGCACA | 0.217 |
| ATGATTCC | -0.0464 |
| GAGTCGAA | -0.0785 |
| AAGACTGG | 0.0219 |
| CGACAGAG | -0.143 |
| CGAGTCCG | -0.186 |
| TACTAAGA | 0.213 |
| AGATAGGC | -0.0353 |
| CCTCGTCG | -0.254 |
| CAGGGGTC | -0.34 |
| TGGAGCCA | -0.213 |
| ACCACAGC | -0.0318 |
| CTGCGGAC | -0.187 |
| CTAGTTAA | 0.36 |
| AACTCGGC | -0.00607 |
| GGGTCCAC | -0.22 |
| ACTGCAGA | 0.0352 |
| CTGGAAAA | 0.0443 |

| Sequence | PBM 8-mer E-score |
| --- | --- |
| CCCCCGGG | -0.383 |
| TCGTGACA | -0.206 |
| CATACCTA | 0.0109 |
| ACGTGCCG | -0.168 |
| CAATAGAG | 0.113 |
| AGCACGGG | -0.199 |
| GAGGTGGA | -0.206 |
| GCCGAGGA | -0.303 |
| ACCGAAGG | -0.223 |
| AGAAGTAT | 0.294 |
| CGCGTAGA | -0.205 |
| GGAGCAGA | -0.231 |
| AGAAGGTC | -0.168 |
| TACCCACA | 0.0694 |
| GAAACAGA | -0.0327 |
| ATGCCGGA | -0.112 |
| GGCCGGTA | -0.157 |
| TAAGGGTA | 0.0961 |
| CAATAACC | 0.223 |
| TCTCCCCA | -0.0894 |
| ACCCTTCA | -0.0969 |
| CCTTATAG | 0.013 |
| TAGATTGA | 0.0246 |
| ACTAAGCC | 0.047 |
| CCATATCG | -0.0357 |

| Sequence | PBM 8-mer E-score |
| --- | --- |
| CTACCTAC | -0.00994 |
| CACAGGTA | -0.0554 |
| AGAAATTA | 0.25 |
| AGAGGAGA | -0.0825 |
| CAACGAAC | -0.137 |
| AACTACTT | 0.294 |
| CAAGCGGG | -0.216 |
| GGGGTCAC | -0.243 |
| GTGGAACA | -0.126 |
| CTGCCGGC | -0.139 |
| AAATATCC | 0.253 |
| ACGCCGAC | -0.216 |
| TCGGTTAA | 0.0426 |
| CGGGTGGA | -0.152 |
| CTGCGAGC | -0.224 |
| ACTGAGAC | -0.0275 |
| ATGGCTTC | -0.171 |
| ATTACGCC | -0.0047 |
| CTCGATTC | -0.0837 |
| GCAAGTAA | 0.224 |
| AACCGAAT | 0.17 |
| ATCTGTCA | -0.0238 |
| AAATTGGT | 0.113 |
| ATTTCCGG | -0.145 |
| ATCTTCAG | 0.162 |

| Sequence | PBM 8-mer E-score |
| --- | --- |
| GTGTGGCA | 0.0427 |
| CACCTTGG | -0.261 |
| GCAGGCTA | -0.169 |
| ACGTGGGC | -0.242 |
| CTGCCGGA | -0.117 |
| ATGGACTA | -0.0113 |
| CGTATGAA | 0.0866 |
| CTTCTTTA | 0.159 |
| CACACGAA | -0.0119 |
| AAACCCGC | 0.0889 |
| ATTCCAAT | 0.109 |
| AAGGCGCG | -0.122 |
| ATGCAATC | -0.0112 |
| GTAAATTA | 0.391 |
| CAGGCCGC | -0.214 |
| ACCTTCAG | -0.221 |
| TGGTTACA | -0.0203 |
| ATACCTTC | -0.0131 |
| ACCAGAAG | -0.0454 |
| ACAGACTA | 0.136 |
| CCGGCTCA | -0.137 |
| ATGCCGAG | -0.0941 |
| CCTTTAAC | 0.0835 |
| AATCCTTA | 0.0689 |
| GAAGTCAA | -0.0526 |

| Sequence | PBM 8-mer E-score |
| --- | --- |
| AGCCTTTC | -0.127 |
| ATTCAACA | 0.221 |
| AAAAGCCT | 0.0139 |
| ATAGTCAT | 0.111 |
| ATTCGCGA | 0.0198 |
| CCCCCCCG | -0.261 |
| CACGCTCC | -0.305 |
| CAGATATA | 0.237 |
| CGAATCCG | -0.0769 |
| CAAGTATG | 0.259 |
| TCGAGCGA | -0.029 |
| CAAATCAA | 0.127 |
| CCGCACAC | -0.0871 |
| ACACAAAG | 0.0167 |
| AATTGTCC | 0.179 |
| ACAGTACA | 0.0121 |
| AGATCGGA | -0.084 |
| CCTGATTA | 0.045 |
| CCGACTGA | -0.0955 |
| CCGACGCC | -0.328 |
| AATAGGGT | 0.087 |
| CACACTCA | 0.0366 |
